In all, about 310,000 compounds went through this assay and about 14,000 (4.5%) showed an effect of 50% or more. Effects have a minus sign here. Some of the results follow.
What follows are compounds tested against human ether-à-go-go-related gene (hERG) potassium channel (human, UniProt Q12809) (assay: primary screen, population patch clamp on CHO cells stably expressing hERG).
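Note: peak tail current of the secondary pulse compared with the same well before compound.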

Chain of human ether-à-go-go-related gene (hERG) potassium channel (Q12809 whole entry, looked up): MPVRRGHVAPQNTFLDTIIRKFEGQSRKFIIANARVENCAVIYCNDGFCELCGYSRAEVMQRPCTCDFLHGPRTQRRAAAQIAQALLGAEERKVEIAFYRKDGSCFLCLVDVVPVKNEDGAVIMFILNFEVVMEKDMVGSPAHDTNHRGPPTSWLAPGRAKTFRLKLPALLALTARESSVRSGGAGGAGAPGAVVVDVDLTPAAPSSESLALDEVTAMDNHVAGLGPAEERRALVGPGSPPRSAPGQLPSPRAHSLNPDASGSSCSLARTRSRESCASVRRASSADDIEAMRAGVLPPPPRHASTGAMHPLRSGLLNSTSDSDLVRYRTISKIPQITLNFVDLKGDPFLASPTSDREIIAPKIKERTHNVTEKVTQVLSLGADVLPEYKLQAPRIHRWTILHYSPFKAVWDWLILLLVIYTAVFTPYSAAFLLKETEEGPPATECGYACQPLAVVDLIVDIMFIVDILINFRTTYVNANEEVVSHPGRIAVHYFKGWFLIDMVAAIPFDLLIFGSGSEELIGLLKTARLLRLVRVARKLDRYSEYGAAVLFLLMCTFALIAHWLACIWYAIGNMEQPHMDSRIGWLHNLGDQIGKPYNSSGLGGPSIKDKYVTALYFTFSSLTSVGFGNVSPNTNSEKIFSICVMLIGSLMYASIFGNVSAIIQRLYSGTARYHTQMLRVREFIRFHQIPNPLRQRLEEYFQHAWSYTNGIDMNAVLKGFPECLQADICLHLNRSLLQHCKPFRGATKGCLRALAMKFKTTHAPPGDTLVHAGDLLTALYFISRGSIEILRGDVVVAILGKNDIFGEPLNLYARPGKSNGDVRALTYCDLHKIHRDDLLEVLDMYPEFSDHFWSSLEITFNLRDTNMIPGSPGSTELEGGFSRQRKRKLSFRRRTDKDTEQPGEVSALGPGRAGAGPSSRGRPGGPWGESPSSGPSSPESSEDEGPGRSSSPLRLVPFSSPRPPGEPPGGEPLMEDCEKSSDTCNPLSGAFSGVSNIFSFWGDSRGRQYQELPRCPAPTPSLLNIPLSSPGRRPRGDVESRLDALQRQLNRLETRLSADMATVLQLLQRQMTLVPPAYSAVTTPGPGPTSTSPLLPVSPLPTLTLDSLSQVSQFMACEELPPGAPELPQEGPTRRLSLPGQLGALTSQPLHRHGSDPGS

Row | SMILES | hERG current change (%, negative = inhibition) at 10uM [%]
1 | CCN(CC)CCN1C(=O)C(O)=C(C(=O)c2sc(C)nc2C)C1c1cccnc1 (stereo not shown) | 11.3
2 | Cc1nc2ccccc2c(=O)n1-c1cccc(NS(=O)(=O)c2ccccc2)c1 | -20.9
3 | CCNC(=S)/N=C(/Nc1ccccc1)Nc1nc(C)cc(C)n1 | -6.85
4 | O=C(NNC(=O)C1CC(=O)N(Cc2ccccc2)C1)c1ccc(Br)cc1 (stereo not shown) | -1.34
5 | O=C(CSc1nnc(Cc2ccccc2)o1)c1ccccc1 | 10.3
6 | NS(=O)(=O)c1ccc(CCNC(=O)c2cc(-c3ccccc3)nc3ccccc23)cc1 | -10.4
7 | Cc1cc2nc(CCN(Cc3cccnc3)C(=S)Nc3ccc(F)cc3)[nH]c2cc1C | 9.94
8 | O=C(NCc1cccc(Cl)c1)NCc1cccc(Cl)c1 | -43
9 | Cc1ccc(NC(=O)NC(=O)COc2ccccc2C(N)=O)c(C)c1 | 4.05
10 | Nc1ccccc1CNc1nc(NCCO)nc2c1ncn2CCN1CCOCC1 | -4.12
11 | C#CCNC(=O)C1=C[C@H](c2cn(C(C)=O)c3ccccc23)[C@@H](CCCO)[C@H](OCC)O1 | -36.9
12 | CC(=O)c1ccc(OC(=O)C2CSC3(C)CCC(=O)N23)cc1 (stereo not shown) | 12.4
13 | CCN(CC)CC.O=C1NC(=S)S/C1=C1\Sc2ccccc2N1CCCS(=O)(=O)O | 24
14 | CCOC(=O)CN(c1cccc(C(C)=O)c1)S(C)(=O)=O | 0.84
15 | CC(C)C(=O)Nc1ccc(N2CCCC2)c(Cl)c1 | 35
16 | CCOC(=O)c1c(NCC(C)C)c2ccccc2[nH]c1=O | -1.01
17 | CC(OC(=O)c1cc2c(s1)CCCCC2)C(=O)NC(N)=O (stereo not shown) | -32
18 | CCn1c(CSc2ncccn2)nnc1SCC(=O)N1c2ccccc2CC1C (stereo not shown) | 5.84
19 | CCCCCCCC1=CC2=CC(=O)C(C)(OC(C)=O)C(=O)C2=CN1CCc1ccccc1 (stereo not shown) | -62.3
20 | CC1CCCC(C)N1CC(O)COc1ccc(Cl)cc1 (stereo not shown) | -65
21 | Cc1ccc(SCCSc2nc(N)cc(=O)[nH]2)cc1 | 14
22 | Cc1nn(C)c(C)c1S(=O)(=O)N1CCC(C(=O)NC(C)c2ccccc2)CC1 (stereo not shown) | 8.56

Row | SMILES | hERG current change (%, negative = inhibition) at 10uM [%]
23 | CCOC(=O)c1sc(=S)n(CC)c1NC(=O)CC | 16.2
24 | COC(=O)c1cc(C(=O)Nc2nnc(CC(C)C)s2)cc([N+](=O)[O-])c1 | -1.01
25 | CC(C)c1cc(C(=O)Nc2cccc(C(F)(F)F)c2)no1 | 7.55
26 | CCOc1ccccc1NC(=O)NC(C)c1ccncc1 (stereo not shown) | 11.5
27 | Cc1nn(Cc2ccc([N+](=O)[O-])cc2)c(=O)n1-c1ccc(Cl)cc1 | -42.9
28 | Cc1cc(C)c(O)c(-c2cc(C(=O)Nc3c(C)n(C)n(-c4ccccc4)c3=O)[nH]n2)c1 | -18.3
29 | CSc1ccc(S(=O)(=O)N2CCC(C(=O)NC3CC3)CC2)cc1 | -7.17
30 | COCCNc1oc(Cc2cccc3ccccc23)nc1C#N | 5.01
31 | COc1cc(NC(=O)C2CC(c3c(F)cccc3Cl)=NO2)cc(OC)c1OC (stereo not shown) | -17.8
32 | Brc1ccc2c(c1)[C@H]1OCC[C@H]1[C@@H](c1cccs1)N2 | -3.18
33 | Cc1ccc(-c2nnc(SCC(=O)NNC(=O)COc3cccc4ccccc34)n2C)cc1 | 5.74
34 | CCC(=O)Nc1ccc(Nc2nc(C)c([N+](=O)[O-])c(Nc3ccc(NC(=O)CC)cc3)n2)cc1 | 7.72
35 | CC1=C(C(=O)OC(C)(C)C)C(c2ccco2)C(C#N)=C(N)O1 (stereo not shown) | 17.3
36 | COc1cc(C(C)=O)ccc1OCc1cc(C(=O)N(C)CCC2CCCCO2)no1 (stereo not shown) | 6.35
37 | O=C(COC(=O)c1ccccc1C(=O)c1ccc(Cl)c([N+](=O)[O-])c1)NC1CCCCCC1 | 16
38 | COc1ccc(-c2[nH]nc3c2C(c2ccsc2)C(C#N)=C(N)O3)cc1 (stereo not shown) | 16.6
39 | COc1ccc(OCC(=O)Nc2c3c(nn2C(C)(C)C)CS(=O)(=O)C3)cc1 | -5.24
40 | O=[N+]([O-])c1cccc(C2(O)COc3ccccc3O2)c1 (stereo not shown) | 9.17
41 | CCOc1ccc(OCC)c(S(=O)(=O)NC2CC(C)(C)NC(C)(C)C2)c1 | 15.2
42 | Cc1sc2nc(CSCC(=O)NC3(C#N)CCCCC3)[nH]c(=O)c2c1C | 16.2
43 | CCOc1ccc(C(CC(=O)O)NC(=O)C23CC4CC(CC(C4)C2)C3)cc1OC (stereo not shown) | 30.2
44 | CCOC(=O)CNC1CC(=O)N(c2ccc(Br)cc2)C1=O (stereo not shown) | 19.4

Row | SMILES | hERG current change (%, negative = inhibition) at 10uM [%]
45 | COc1ccccc1-c1cc(C(=O)N2CCCC2)no1 | -8.67
46 | CC(C)(C)OC(=O)NCC(=O)Oc1cc2oc(=O)cc(-c3ccccc3)c2cc1Cl | 2.95
47 | Cc1ccc(C)c(NC(=O)CN2C(=O)NC(C)(c3ccc4c(c3)OCCO4)C2=O)c1 (stereo not shown) | 3.21
48 | COc1cc2c(N3CCOCC3)cc(O)c(CC(=O)Nc3ccccc3)c2cc1OC | 18.8
49 | Cc1ccc(OCc2cc(C(=O)N(C)CC3CCOCC3)no2)cc1C | -13.1
50 | O=C(CN1C(=O)CCC1=O)Nc1ccc(Br)cc1 | -2.74
51 | COc1cc(CNc2ncn[nH]2)ccc1OCc1ccccc1C | 3.38
52 | Cc1nc2ccc(NC(=O)c3cccc(C(F)(F)F)c3)cc2o1 | -13.1
53 | Cc1cc(S(=O)(=O)N2CCN(c3ccccc3F)CC2)ccc1-n1cnnn1 | -23.8
54 | Cc1[nH]c(=O)c(C#N)c(C)c1Cl | 1.64
55 | CCn1cc(Br)c(C(=O)Nc2ccc(Cl)cc2Cl)n1 | 7.24
56 | Cc1ccc(/C=C/C(=O)O)cc1S(=O)(=O)N1CCc2ccccc2C1 | 6.57
57 | Cc1ccccc1N=C(NOCc1ccccc1)c1nonc1N | -11.9
58 | COc1cccc(CNC(=O)c2nnn(CC(=O)Nc3c(C)cccc3C)c2N)c1 | 19
59 | O=C(Cc1ccc(Cl)cc1)NCCCn1ccnc1 | 3.14
60 | CCN(C(=O)c1ccc(Cl)c([N+](=O)[O-])c1)c1ccccc1 | -5.95
61 | COc1cc(/C=N/NC(=O)c2ccccc2Cl)ccc1Oc1ccc([N+](=O)[O-])cn1 | -31.5
62 | O=C(Nc1nnc(CC2=CCCCC2)s1)c1cccs1 | 13.9
63 | CCCCS(=O)(=O)N1CN(S(=O)(=O)CCCC)C2NC(=O)NC21 (stereo not shown) | 5.71
64 | COc1ccc(-c2cc(N3CCCC3)n3ncnc3n2)cc1 | -64.5
65 | NS(=O)(=O)c1cccc(NC(=O)CSc2ncc(C(F)(F)F)cc2Cl)c1 | -16.2
66 | Cc1ccc(N(CC(=O)NC2CCCC2)C(=O)CNC(=O)c2cccs2)cc1F | 24.4

Row | SMILES | hERG current change (%, negative = inhibition) at 10uM [%]
67 | O=C(CNS(=O)(=O)c1ccc(Br)cc1)NC1CCCC1 | 9.17
68 | Cl.O=c1cc(CN2CCNCC2)nc2sccn12 | -0.707
69 | CCOC(=O)c1c(NC(=O)C(C)Sc2cn(C)c3ccccc23)sc2c1CCC2 (stereo not shown) | 18
70 | N#C/C(=C\c1cccn1-c1ccccc1)C(=O)NC1CCCCC1 | -13.6
71 | CCOC(=O)c1cnc2c(-c3ccccc3)c(C)nn2c1N | -0.771
72 | Cn1c(=O)c2c(SCC(=O)N3CCCCC3)nc(-c3ccccc3F)nc2n(C)c1=O | 21.5
73 | Cc1ccc2nc(N3CC(C)OC(C)C3)nc(-c3ccccc3)c2c1 (stereo not shown) | 5.88
74 | Cc1c(-n2c(SC(C)C(=O)NC(N)=O)nc3ccccc3c2=O)c(=O)n(-c2ccccc2)n1C (stereo not shown) | 1.61
75 | CCc1nn(C(C)C(=O)NC2CCCCCC2)c(=O)c2cc3occc3n12 (stereo not shown) | -11.1
76 | CCN(CC(=O)Nc1ccc(NC(C)=O)cc1)C(=O)CCCOc1cccc(C)c1 | 1.96
77 | O=C(NCCn1ccc2ccccc21)c1ccc(S(=O)(=O)N2CCCCC2)cc1 | -17
78 | Cc1cc2cc(CNC(=O)NC3CCCCC3)ccc2n1C | -1.79
79 | O=C(/C=C/c1ccc(F)cc1)NC(=S)N1CCOCC1 | 19.5
80 | O=C(/C=C/c1ccccc1[N+](=O)[O-])NCc1cccnc1 | -6.56
81 | c1ccc(CSCc2nc3ccccc3[nH]2)cc1 | -1.93
82 | COc1cc(C(=O)N2CCN(C(=O)c3cc(-c4ccccc4)n[nH]3)CC2)cc(OC)c1OC | -77.6
83 | Cc1c(-c2cccs2)[n+](=O)c2c(n1[O-])CCCCC2 | 9.48
84 | Cc1c(CC(=O)O)c(=O)oc2c(C)c(OCc3ccccc3)ccc12 | 17.7
85 | CCn1c2ccccc2c2cc(/C=N/NC(=O)c3ccccc3)ccc21 | 6.86
86 | Nc1cc(=O)[nH]c(=O)n1-c1cccc(F)c1 | 18.4
87 | COc1cc2c(cc1NC(=O)C(C)N1CCN(S(=O)(=O)c3ccccc3[N+](=O)[O-])CC1)oc1ccccc12 (stereo not shown) | -7.93
88 | O=C(CN1CCCN(S(=O)(=O)c2ccc(F)cc2)CC1)Nc1ccccc1Br | -49.1

Source: paper PMC4336329 (PLoS ONE, 2015)
